This note sets out measurements from EP4674868A1 (Jiangsu Hengrui Pharmaceuticals Co., Ltd., dated 2026).

By EC50 is commonly meant the concentration that produces a half-maximal response. Higher therefore signals weaker potency.

This experiment deals with T1, human 4-1BB on the surface of HEK293 cells (HEK293-Hu4-1BB) (human, UniProt Q07011 24-255).
T1 construct: whole, on cells; also called CD137; cell strain highly expressing human 4-1BB
In words: FACS, HEK293-Hu4-1BB cells. In general terms: Flow cytometry measures light scatter and fluorescence of single cells or particles in a stream.

T1 sequence (Q07011 24-255): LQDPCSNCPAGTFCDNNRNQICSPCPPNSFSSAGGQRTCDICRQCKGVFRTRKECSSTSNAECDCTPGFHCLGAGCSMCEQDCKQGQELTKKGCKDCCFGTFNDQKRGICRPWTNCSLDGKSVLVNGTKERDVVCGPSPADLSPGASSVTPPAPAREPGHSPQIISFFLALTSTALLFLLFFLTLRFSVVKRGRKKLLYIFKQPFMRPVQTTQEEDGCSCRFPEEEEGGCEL

B1: C5-Fc (anti-4-1BB nanobody C5 linked to IgG1-Fc with C220A, S267E, L328F) (Fc fusion)
chain: QVQLVESGGGLVQPGGSLRLSCSASGFTFSSYAMSWVRQAPGKGLEWVSDINSGGESTFYEDSVKGRFTISRDNAKNTLYLQMNSLKPEDTAVYYCAKHPLTFTIATMNDYDYWGQGTQVTVSS[human IgG1 Fc with changes not given here]
notes: Tested as VHH-Fc
Molecule B1 displayed an EC50 of 3.2 nM.
